Laboratory results taken from ChEMBL document CHEMBL4888484, “Replenishing the malaria drug discovery pipeline: Screening and hit evaluation of the MMV Hit Generation Library 1 (HGL1) against asexual blood stage Plasmodium falciparum ,using a nano luciferase reporter read-out” (2022).
Among all 150,000 compounds or so, about 540 (0.36%) showed an effect of 50% or more. This is one part of the list.

system: Plasmodium falciparum; assay: Primary screen in NF54 nanoGlo assay, in single point, at 2uM, 72h; a lower Z score goes with more inhibition; type: functional, Erythrocyte; details: timepoint 72 hour

Structure (SMILES) | % Inhibition [%] | Z score
CCc1c(C)nn(-c2cccc(C(=O)NCCN3CCCOC3=O)c2)c1O | -15 | 2.57
Cc1csc(CN(C)c2ccnc(N(C)C)n2)n1 | -14 | 1.95
CCOC[C@H](C)OC(=O)c1csnc1C | -12 | 1.66
CCNc1ccc(Cl)cc1C(=O)N1CC[C@H](c2cnn(C)c2)C1 | -1 | 0.25
CCOc1cc(Cl)ccc1CNC(=O)N1C[C@@H](c2nc(C)no2)O[C@@H](C)C1 | -2 | 0.24
Cc1[nH]ncc1C(=O)NCc1ccccc1CN1C(=O)NC2(CCCCC2)C1=O | -1 | 0.19
CN(CCCn1cccn1)C(=O)[C@@]12CC[C@@](C)([C@H](O)C1)C2(C)C | -1 | 0.15
COc1ccccc1-c1cc(C(F)F)n2ncc(C(=O)N3CCN(c4ccc(F)cc4)CC3)c2n1 | 0 | 0.06
COC[C@H]1CCCN1C(=O)c1cc(C)nc2cc(Cl)ccc12 | -5 | 0.57
CC(Oc1ccccc1)C(=O)NC1CCCn2ncnc21 (stereo not given) | 1 | -0.11
CC1CCCCC1NC(=O)c1cccc(S(=O)(=O)NCc2cccs2)c1 (stereo not given) | -1 | 0.1
Cc1cc(C)nc(N2CCN(C(=O)c3nnn(-c4ccccc4Cl)c3C)CC2)n1 | -10 | 1.7
Cc1ccc(Cn2ccn3nc(-c4ccc5c(c4)OCO5)cc3c2=O)c(C)c1 | -6 | 0.92
O=S(=O)(Nc1ccc2c(c1)OC1(CCCCC1)O2)c1ccc(F)cc1F | -12 | 1.13
Cc1nnsc1C(=O)N1CCC=C(F)C1 | 0 | -0.02
O=C(O)Cn1ccc([C@H]2CCCN(C(=O)c3cccc4ccccc34)C2)n1 | -10 | 1.27
CCOC(=O)NCCc1ccc(F)cc1 | -16 | 2.19
CCOc1ccc2c(c1)C=C(C(=O)NCc1ccccn1)CO2 | -3 | 0.54
CCC(=O)Nc1nnc(-c2ccncc2)[nH]1 | 0 | 0
NC(=O)COc1ccccc1CN(Cc1ccc(F)cc1)C[C@H]1CCCO1 | -6 | 0.89
COC(=O)[C@@]1(C)N[C@@H](c2ccc(OC)cc2F)[C@H]2C(=O)N(C)C(=O)[C@H]21 | -18 | 3.36
CC[C@H](NC(=O)CCCn1cccn1)c1nc(C)c(C)s1 | 1 | -0.16

Structure (SMILES) | % Inhibition [%] | Z score
CC(C)CCc1cc(NC(=O)c2ccnc(N3CCCC3)n2)[nH]n1 | 11 | -1.14
O=C(CC[C@H]1CCCCO1)NCC1(N2CCOCC2)CCCCC1 | -8 | 1.07
O=C(NC[C@H]1CCCO1)c1[nH]nnc1-c1ccc(F)cc1 | -9 | 1.64
COc1ccc(CC2C(O)C(Cc3ccc(OC)cc3)C3CCC2N3C)cc1 (stereo not given) | 38 | -4.91
CCc1ncc(NC(=O)c2coc(-c3ccccc3)n2)cn1 | -21 | 2.66
Cc1cc(CNC(=O)[C@H](C)N2CCCC2)ccn1 | -10 | 1.37
CCC(C)CC(C)NC(=O)NCc1ccn(C(C)C)n1 (stereo not given) | -4 | 0.78
COc1cc2c(cc1OC)[C@@H](Nc1ncc(C(=O)O)cn1)CCCC2 | 1 | -0.2
CNC(=O)[C@@H]1C[C@@H](n2cc(C(C)(C)NC(=O)c3ccccc3Cl)nn2)CN1 | 6 | -1.18
CC(C)(C)[C@H]1CCc2c(sc3nc(-c4ccc(Cl)cc4)cn23)C1 | 8 | -1.02
C=CCN(Cc1cccnc1)Cc1[nH]cnc1C | -6 | 1.06
O=C(O)[C@H]1CCCN1Cc1csc(-c2ccsc2)n1 | -10 | 1.34
Cc1cc(C)c2oc(N3C[C@H](O)C4(CC4)C3)nc2c1 | -4 | 0.75
Cc1ccc(C)c(NC(=O)NC[C@H](C)C#N)c1 | -1 | 0.07
CCN1C(=O)c2cc(S(=O)(=O)NCc3cccc(Cl)c3)ccc2Oc2cccnc21 | -5 | 0.86
O=C(Nc1ccccc1)N1CCCC[C@@H]1CCN1CCCCCC1 | -14 | 1.45
C[C@H]1CN(C(=O)Nc2ccc(F)cc2)C[C@@H]1c1nc(-c2ccccc2)no1 | -4 | 0.42
CC(=O)N1CCN(C(=O)c2ccc(C)nc2C2CCN(Cc3ccc(N(C)C)cc3)CC2)CC1 | -14 | 1.78
O=C(Cc1cnc2ccccc2c1)N1CCO[C@H](c2nccs2)C1 | -6 | 0.87
Cc1ccc(Br)cc1CNCc1cncn1C | -11 | 1.1
CC(C)Cc1ccc([C@H](C)C(=O)N[C@@H](C)C(N)=O)cc1 | -6 | 1.15
Cn1ccc(NC(=O)C(=O)N(Cc2ccccc2F)C2CCC2)n1 | -4 | 0.58

Structure (SMILES) | % Inhibition [%] | Z score
Cc1cc(C(=O)N2CCN(CC(C)C)[C@@H]3CS(=O)(=O)C[C@@H]32)c(C)o1 | -9 | 1.1
CC[C@H](C)[C@H](NC(=O)c1ccccc1)C(=O)O | -18 | 2.75
COCC[C@H]1CN(Cc2nc(C)c(C)n2C)CCO1 | -15 | 1.59
O=C(Nc1ccccc1Oc1ccccc1)N1CCN2CCC[C@H]2C1 | -9 | 1.62
CC1=CCN(S(=O)(=O)c2cccc(C(=O)NCCn3cccn3)c2)CC1 | -4 | 0.58
Cc1ncoc1C(=O)N1CC[C@@]2(CCCN(Cc3ccccc3F)C2)C1 | 5 | -1
Cn1cccc(C(=O)Nc2nc3c(o2)CCCC3)c1=O | -14 | 1.91
Cc1cccc(C)c1OC[C@@H](O)CNC(=O)c1ccco1 | -16 | 1.85
CCn1ncnc1CN1CC[C@H](CC2CCCC2)C1 | 19 | -2.05
O=C(OCc1ccccn1)c1ccc(O)c(Cl)c1 | -1 | 0.1
Cc1cc(C#N)nc(N2CCN(CC(F)(F)F)C[C@H](C)C2)n1 | -5 | 0.63
Cc1cc2c(N(C)Cc3ccc4c(c3)OCO4)ncnc2s1 | 0 | 0.05
CC(=O)NCC(=O)N1CCC(OC(C)(C)C)CC1 | 30 | -4.4
CCc1ccc([C@@H]2CCCCN2C(=O)c2conc2COC)o1 | 6 | -0.78
COCCc1noc([C@H]2CC(=O)N(C(C)C)C2)n1 | 0 | 0
Cc1ccsc1CN(Cc1ccc(F)cc1)C(=O)CN(C(C)C)S(=O)(=O)c1cc(Cl)ccc1Cl | -7 | 0.71
O=C(NCCc1nnc2ccccn12)c1cc(Br)c[nH]1 | -14 | 2.36
COc1ccc2c(c1)CCc1c-2n[nH]c1-c1ccc(C(=O)NCc2cccc(Cl)c2)cc1 | -3 | 0.39
Cc1ccc2nc(NCc3ccco3)c(-c3noc(C)n3)cc2c1 | -6 | 0.69
Cc1cc2c(cc1S(=O)(=O)N1CCC(C)CC1)OCC(=O)N2Cc1noc(C2CC2)n1 | -6 | 0.71
N#Cc1ccccc1CN(CC(=O)N1CCCC1)C[C@H]1CCCO1 | -4 | 0.4
CC[C@H](C)NC(=O)CN1CCN(C(=O)c2cccc3[nH]ccc23)CC1 | 1 | -0.12

Structure (SMILES) | % Inhibition [%] | Z score
O=C(O)[C@H]1CN(c2cc(C3CC3)ncn2)CC12CCCCC2 | -7 | 1.06
COCCN1CCC(CN(Cc2ccncc2)Cc2nc3ccc(F)cc3[nH]2)CC1 | 0 | 0.04
CC1CCN(C(=O)c2nc(CC(=O)NC3CC3)no2)CC1 | -16 | 2.36
CC(C)Cc1cc(CNS(=O)(=O)c2cccc3nn(C)nc23)on1 | -10 | 1.06
COCCCNCc1ccccc1OC | -3 | 0.62
Cc1cccc(NC(=O)C2(C#N)C(c3ccccc3)C2(C)C(=O)c2ccccc2)c1 (stereo not given) | 1 | -0.17
CN(C)CCN(Cc1ccccc1)C(=O)c1cc2n(n1)CCN(Cc1ccc(F)cc1)C2=O | 0 | -0.02
Cc1ccc([C@H](C)NC(=O)CC2CCN(C(C)C)CC2)cn1 | -16 | 1.46
COc1ccc(NC(=O)CCN(CC(C)C)c2nc(-c3ccccc3)nc3cc(Cl)ccc23)cc1 | -15 | 1.78
CCNC(=O)[C@@]1(OCc2ccccc2F)CC(OCc2ccc(F)cc2F)[C@@H]2OC(C)(C)O[C@@H]2C1 (stereo not given in full) | -4 | 0.57
O=C(C1CCCC1)N1CC(S(=O)(=O)N2CCC(n3cccn3)CC2)C1 | -7 | 0.62
Cc1n[nH]c(C)c1CN1CCN(C(=O)c2ccccc2OC(F)F)CC1 | 8 | -1.54
Cc1ccc(CNC(=O)Nc2cccc(-c3nnco3)c2)cc1 | -23 | 2.29
O=C(Nc1ccnn1C1CCC1)c1ccc(-c2cn[nH]c2)cn1 | -10 | 1.42
CCCCn1nc(C)cc1NC(=O)[C@@H]1CC(=O)Nc2c(OC)cccc21 | -10 | 0.91
COCCn1nc2n(c1=O)CCC1(CC2)CCN(C(=O)CCc2c(C)nn(C)c2C)CC1 | -3 | 0.49
CCc1nc2cc(-c3ccncc3)cnc2[nH]1 | -8 | 1.46
CC(C)C(=O)NCCc1csc(C2CCN(C(=O)c3ccco3)CC2)n1 | -11 | 1.37
O=C(CCc1ccccc1)N1CCCN(c2nc(C3CC3)no2)CC1 | -2 | 0.17
